Measured values reported in PMC12756210.
These are yes or no findings as the source states them, for the method shown. For part of these data: In cells and extracts the contact can be indirect. Some results given as binding are weak or reduced against the parent protein; the word gives no strength. Sequences can lack the tags named with a protein.

Protein sequences, listed by entry. Tags and fused reporters are not part of them.
UniProt P05804: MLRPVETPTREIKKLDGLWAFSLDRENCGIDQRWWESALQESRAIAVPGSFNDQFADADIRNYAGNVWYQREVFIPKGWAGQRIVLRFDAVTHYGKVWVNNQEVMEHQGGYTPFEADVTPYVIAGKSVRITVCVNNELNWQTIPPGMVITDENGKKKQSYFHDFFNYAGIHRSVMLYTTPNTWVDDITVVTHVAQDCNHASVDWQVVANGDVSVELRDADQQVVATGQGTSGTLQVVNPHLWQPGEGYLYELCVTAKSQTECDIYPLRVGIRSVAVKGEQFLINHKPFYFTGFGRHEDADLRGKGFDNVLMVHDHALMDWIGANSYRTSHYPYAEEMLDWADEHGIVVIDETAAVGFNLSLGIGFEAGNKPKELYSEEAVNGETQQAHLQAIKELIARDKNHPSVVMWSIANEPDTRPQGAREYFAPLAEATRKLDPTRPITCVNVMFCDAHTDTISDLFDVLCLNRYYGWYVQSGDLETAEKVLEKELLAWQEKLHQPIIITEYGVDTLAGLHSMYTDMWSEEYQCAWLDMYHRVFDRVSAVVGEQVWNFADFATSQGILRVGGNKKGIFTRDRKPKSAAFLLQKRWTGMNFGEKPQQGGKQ

T1: ZIP2-cYFP (Arabidopsis) (UniProt Q9LTH9)
T1 sequence: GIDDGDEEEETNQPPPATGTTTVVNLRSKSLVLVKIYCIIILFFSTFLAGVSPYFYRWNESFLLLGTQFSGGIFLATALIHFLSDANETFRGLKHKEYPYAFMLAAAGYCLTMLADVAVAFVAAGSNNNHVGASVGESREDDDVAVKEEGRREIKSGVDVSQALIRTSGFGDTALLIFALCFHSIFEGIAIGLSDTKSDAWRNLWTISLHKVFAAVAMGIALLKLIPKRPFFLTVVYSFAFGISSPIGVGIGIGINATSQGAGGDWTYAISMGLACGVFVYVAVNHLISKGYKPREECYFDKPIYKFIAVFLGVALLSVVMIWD

T2: GST-ZIP2-Loop (Arabidopsis) (UniProt Q9LTH9)
T2 sequence: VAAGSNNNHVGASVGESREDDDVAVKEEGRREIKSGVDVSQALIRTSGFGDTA

T3: ZIP2-GFP (Arabidopsis) (UniProt Q9LTH9)
T3 sequence: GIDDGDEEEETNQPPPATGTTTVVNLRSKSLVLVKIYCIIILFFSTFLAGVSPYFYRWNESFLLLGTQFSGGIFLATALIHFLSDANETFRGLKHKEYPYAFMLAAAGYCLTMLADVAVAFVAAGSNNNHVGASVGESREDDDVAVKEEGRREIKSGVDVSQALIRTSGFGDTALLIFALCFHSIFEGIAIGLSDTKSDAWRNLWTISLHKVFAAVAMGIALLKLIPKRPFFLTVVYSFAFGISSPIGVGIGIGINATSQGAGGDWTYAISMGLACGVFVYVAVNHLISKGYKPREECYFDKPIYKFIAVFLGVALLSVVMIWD

T4: ZIP2-cLUC (Arabidopsis) (UniProt Q9LTH9)
T4 sequence: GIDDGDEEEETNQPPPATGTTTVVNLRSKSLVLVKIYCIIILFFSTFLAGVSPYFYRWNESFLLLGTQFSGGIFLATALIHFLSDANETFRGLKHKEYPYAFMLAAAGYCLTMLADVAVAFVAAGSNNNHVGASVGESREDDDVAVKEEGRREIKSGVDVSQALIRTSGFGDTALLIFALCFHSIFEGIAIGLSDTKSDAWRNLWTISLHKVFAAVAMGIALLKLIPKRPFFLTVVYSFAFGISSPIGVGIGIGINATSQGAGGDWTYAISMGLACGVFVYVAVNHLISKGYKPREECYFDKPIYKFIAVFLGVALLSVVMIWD


Experiments:
ZIP2-cYFP (Arabidopsis) = target: T1, ZIP2-cYFP (Arabidopsis); assay: split reporter; BiFC: nYFP and cYFP fusions transiently co-expressed in N. benthamiana leaves with CBL1-OFP as plasma membrane marker; YFP fluorescence read 48 h after transfection
GUS-cYFP = GUS-cYFP (UniProt P05804); assay: as above
[1] = target: T2, GST-ZIP2-Loop (Arabidopsis); assay: pull-down; GST-ZIP2-Loop (or GST) on glutathione beads incubated with His-CIPK3/9/23/26; eluate blotted with anti-His antibody; both purified
ZIP2-GFP (Arabidopsis) = target: T3, ZIP2-GFP (Arabidopsis); assay: co-IP; total protein of 10-day-old transgenic Arabidopsis seedlings in IP buffer (50 mM Tris HCl pH 7.6, 150 mM NaCl, 0.5% NP-40); anti-GFP agarose beads; blots with anti-FLAG and anti-GFP antibodies
GUS-cLUC = GUS-cLUC (UniProt P05804); assay: split reporter; split luciferase complementation imaging (LCI): nLUC and cLUC fusions co-infiltrated by Agrobacterium GV3101 into N. benthamiana leaves, expressed 48 h, signal read by CCD
ZIP2-cLUC (Arabidopsis) = target: T4, ZIP2-cLUC (Arabidopsis); assay: as above

Row | Binder | binding (ZIP2-cYFP (Arabidopsis)) | binding (GUS-cYFP) | binding (GUS-cLUC) | binding (ZIP2-cLUC (Arabidopsis)) | also measured
1 | CIPK3-nYFP (protein, UniProt Q2V452 1-441) MNRRQQVKRRVGKYEVGRTIGEGTFAKVKFARNSETGEPVALKILDKEKVLKHKMAEQIRREIATMKLIKHPNVVQLYEVMASKTKIFIILEYVTGGELFDKIVNDGRMKEDEARRYFQQLIHAVDYCHSRGVYHRDLKPENLLLDSYGNLKISDFGLSALSQQVRDDGLLHTSCGTPNYVAPEVLNDRGYDGATADMWSCGVVLYVLLAGYLPFDDSNLMNLYKKISSGEFNCPPWLSLGAMKLITRILDPNPMTRVTPQEVFEDEWFKKDYKPPVFEERDDSNMDDIDAVFKDSEEHLVTEKREEQPAAINAFEIISMSRGLNLENLFDPEQEFKRETRITLRGGANEIIEKIEEAAKPLGFDVQKKNYKMRLENVKAGRKGNLNVATEIFQVAPSLHMVQVSKSKGDTLEFHKFYKKLSNSLEQVVWTNNEVKKETAK | binds | no binding | – | – | –
2 | CIPK9-His (protein, UniProt Q9MAM1 1-447) MSGSRRKATPASRTRVGNYEMGRTLGEGSFAKVKYAKNTVTGDQAAIKILDREKVFRHKMVEQLKREISTMKLIKHPNVVEIIEVMASKTKIYIVLELVNGGELFDKIAQQGRLKEDEARRYFQQLINAVDYCHSRGVYHRDLKPENLILDANGVLKVSDFGLSAFSRQVREDGLLHTACGTPNYVAPEVLSDKGYDGAAADVWSCGVILFVLMAGYLPFDEPNLMTLYKRICKAEFSCPPWFSQGAKRVIKRILEPNPITRISIAELLEDEWFKKGYKPPSFDQDDEDITIDDVDAAFSNSKECLVTEKKEKPVSMNAFELISSSSEFSLENLFEKQAQLVKKETRFTSQRSASEIMSKMEETAKPLGFNVRKDNYKIKMKGDKSGRKGQLSVATEVFEVAPSLHVVELRKTGGDTLEFHKFYKNFSSGLKDVVWNTDAAAEEQKQ | – | – | – | – | binding [1]: binds
3 | CIPK26-FLAG (protein, UniProt Q84VQ3 1-439) MNRPKVQRRVGKYEVGKTLGQGTFAKVRCAVNTETGERVALKILDKEKVLKHKMAEQIRREICTMKLINHPNVVRLYEVLASKTKIYIVLEFGTGGELFDKIVHDGRLKEENARKYFQQLINAVDYCHSRGVYHRDLKPENLLLDAQGNLKVSDFGLSALSRQVRGDGLLHTACGTPNYAAPEVLNDQGYDGATADLWSCGVILFVLLAGYLPFEDSNLMTLYKKIIAGEYHCPPWLSPGAKNLIVRILDPNPMTRITIPEVLGDAWFKKNYKPAVFEEKEEANLDDVDAVFKDSEEHHVTEKKEEQPTSMNAFELISMSRALDLGNLFEEEEGFKRETRFAAKGAANDLVQKIEEASKPLGFDIQKKNYKMRLENVTAGRKGNLRVATEIFQVSPSLHMIEVRKTKGDTLEFHKFYKKLSTSLNDVVWKSGESSGLSK | – | – | – | – | binding (ZIP2-GFP (Arabidopsis)): binds
4 | CIPK9-nYFP (protein, UniProt Q9MAM1 1-447) MSGSRRKATPASRTRVGNYEMGRTLGEGSFAKVKYAKNTVTGDQAAIKILDREKVFRHKMVEQLKREISTMKLIKHPNVVEIIEVMASKTKIYIVLELVNGGELFDKIAQQGRLKEDEARRYFQQLINAVDYCHSRGVYHRDLKPENLILDANGVLKVSDFGLSAFSRQVREDGLLHTACGTPNYVAPEVLSDKGYDGAAADVWSCGVILFVLMAGYLPFDEPNLMTLYKRICKAEFSCPPWFSQGAKRVIKRILEPNPITRISIAELLEDEWFKKGYKPPSFDQDDEDITIDDVDAAFSNSKECLVTEKKEKPVSMNAFELISSSSEFSLENLFEKQAQLVKKETRFTSQRSASEIMSKMEETAKPLGFNVRKDNYKIKMKGDKSGRKGQLSVATEVFEVAPSLHVVELRKTGGDTLEFHKFYKNFSSGLKDVVWNTDAAAEEQKQ | binds | no binding | – | – | –
5 | CIPK23-nYFP (protein, UniProt Q93VD3 1-482) MASRTTPSRSTPSRSTPSGSSSGGRTRVGKYELGRTLGEGTFAKVKFARNVENGDNVAIKVIDKEKVLKNKMIAQIKREISTMKLIKHPNVIRMFEVMASKTKIYFVLEFVTGGELFDKISSNGRLKEDEARKYFQQLINAVDYCHSRGVYHRDLKPENLLLDANGALKVSDFGLSALPQQVREDGLLHTTCGTPNYVAPEVINNKGYDGAKADLWSCGVILFVLMAGYLPFEDSNLTSLYKKIFKAEFTCPPWFSASAKKLIKRILDPNPATRITFAEVIENEWFKKGYKAPKFENADVSLDDVDAIFDDSGESKNLVVERREEGLKTPVTMNAFELISTSQGLNLGSLFEKQMGLVKRKTRFTSKSSANEIVTKIEAAAAPMGFDVKTNNYKMKLTGEKSGRKGQLAVATEVFQVAPSLYMVEMRKSGGDTLEFHKFYKNLTTGLKDIVWKTIDEEKEEGTDGGGTNGAMANRTIAKQST | binds | no binding | – | – | –
6 | CIPK3-nLUC (protein, UniProt Q2V452 1-441) MNRRQQVKRRVGKYEVGRTIGEGTFAKVKFARNSETGEPVALKILDKEKVLKHKMAEQIRREIATMKLIKHPNVVQLYEVMASKTKIFIILEYVTGGELFDKIVNDGRMKEDEARRYFQQLIHAVDYCHSRGVYHRDLKPENLLLDSYGNLKISDFGLSALSQQVRDDGLLHTSCGTPNYVAPEVLNDRGYDGATADMWSCGVVLYVLLAGYLPFDDSNLMNLYKKISSGEFNCPPWLSLGAMKLITRILDPNPMTRVTPQEVFEDEWFKKDYKPPVFEERDDSNMDDIDAVFKDSEEHLVTEKREEQPAAINAFEIISMSRGLNLENLFDPEQEFKRETRITLRGGANEIIEKIEEAAKPLGFDVQKKNYKMRLENVKAGRKGNLNVATEIFQVAPSLHMVQVSKSKGDTLEFHKFYKKLSNSLEQVVWTNNEVKKETAK | – | – | no binding | binds | –
7 | CIPK9-nLUC (protein, UniProt Q9MAM1 1-447) MSGSRRKATPASRTRVGNYEMGRTLGEGSFAKVKYAKNTVTGDQAAIKILDREKVFRHKMVEQLKREISTMKLIKHPNVVEIIEVMASKTKIYIVLELVNGGELFDKIAQQGRLKEDEARRYFQQLINAVDYCHSRGVYHRDLKPENLILDANGVLKVSDFGLSAFSRQVREDGLLHTACGTPNYVAPEVLSDKGYDGAAADVWSCGVILFVLMAGYLPFDEPNLMTLYKRICKAEFSCPPWFSQGAKRVIKRILEPNPITRISIAELLEDEWFKKGYKPPSFDQDDEDITIDDVDAAFSNSKECLVTEKKEKPVSMNAFELISSSSEFSLENLFEKQAQLVKKETRFTSQRSASEIMSKMEETAKPLGFNVRKDNYKIKMKGDKSGRKGQLSVATEVFEVAPSLHVVELRKTGGDTLEFHKFYKNFSSGLKDVVWNTDAAAEEQKQ | – | – | no binding | binds | –
8 | CIPK23-nLUC (protein, UniProt Q93VD3 1-482) MASRTTPSRSTPSRSTPSGSSSGGRTRVGKYELGRTLGEGTFAKVKFARNVENGDNVAIKVIDKEKVLKNKMIAQIKREISTMKLIKHPNVIRMFEVMASKTKIYFVLEFVTGGELFDKISSNGRLKEDEARKYFQQLINAVDYCHSRGVYHRDLKPENLLLDANGALKVSDFGLSALPQQVREDGLLHTTCGTPNYVAPEVINNKGYDGAKADLWSCGVILFVLMAGYLPFEDSNLTSLYKKIFKAEFTCPPWFSASAKKLIKRILDPNPATRITFAEVIENEWFKKGYKAPKFENADVSLDDVDAIFDDSGESKNLVVERREEGLKTPVTMNAFELISTSQGLNLGSLFEKQMGLVKRKTRFTSKSSANEIVTKIEAAAAPMGFDVKTNNYKMKLTGEKSGRKGQLAVATEVFQVAPSLYMVEMRKSGGDTLEFHKFYKNLTTGLKDIVWKTIDEEKEEGTDGGGTNGAMANRTIAKQST | – | – | no binding | binds | –
9 | CIPK3-His (protein, UniProt Q2V452 1-441) MNRRQQVKRRVGKYEVGRTIGEGTFAKVKFARNSETGEPVALKILDKEKVLKHKMAEQIRREIATMKLIKHPNVVQLYEVMASKTKIFIILEYVTGGELFDKIVNDGRMKEDEARRYFQQLIHAVDYCHSRGVYHRDLKPENLLLDSYGNLKISDFGLSALSQQVRDDGLLHTSCGTPNYVAPEVLNDRGYDGATADMWSCGVVLYVLLAGYLPFDDSNLMNLYKKISSGEFNCPPWLSLGAMKLITRILDPNPMTRVTPQEVFEDEWFKKDYKPPVFEERDDSNMDDIDAVFKDSEEHLVTEKREEQPAAINAFEIISMSRGLNLENLFDPEQEFKRETRITLRGGANEIIEKIEEAAKPLGFDVQKKNYKMRLENVKAGRKGNLNVATEIFQVAPSLHMVQVSKSKGDTLEFHKFYKKLSNSLEQVVWTNNEVKKETAK | – | – | – | – | binding [1]: binds
